Some of the results follow. For some assays here: At the low end of the ranking the order means little. For some assays here: The protein was read in a cell extract, so binding may be indirect.
Legend:
Details in all cases: 20 mM HEPES pH 7.9, 100 mM NaCl, 1 mM DTT, 0.2 mg/mL BSA, 0.02% Triton X-100, 2% milk, 0.4 mg/mL salmon testes DNA; 1 h; temperature not stated; high values mean tight binding; double strand, one strand shown; sequences stand for … in GCCTAGCAC…GTGCTAGGTCTTGATTCGCTTGACGCTGCTG
[1] = target: PU.1 (IVT) (UniProt P17947); assay: protein-binding microarray (PBM)
[2] = target: PU.1 (endogenous, THP-1 nuclear extract) (UniProt P17947); assay: nuclear extract protein-binding microarray (nextPBM)
[3] = target: T1, FLI1 (endogenous, THP-1 nuclear extract) (UniProt Q01543); assay: as above
T1 sequence: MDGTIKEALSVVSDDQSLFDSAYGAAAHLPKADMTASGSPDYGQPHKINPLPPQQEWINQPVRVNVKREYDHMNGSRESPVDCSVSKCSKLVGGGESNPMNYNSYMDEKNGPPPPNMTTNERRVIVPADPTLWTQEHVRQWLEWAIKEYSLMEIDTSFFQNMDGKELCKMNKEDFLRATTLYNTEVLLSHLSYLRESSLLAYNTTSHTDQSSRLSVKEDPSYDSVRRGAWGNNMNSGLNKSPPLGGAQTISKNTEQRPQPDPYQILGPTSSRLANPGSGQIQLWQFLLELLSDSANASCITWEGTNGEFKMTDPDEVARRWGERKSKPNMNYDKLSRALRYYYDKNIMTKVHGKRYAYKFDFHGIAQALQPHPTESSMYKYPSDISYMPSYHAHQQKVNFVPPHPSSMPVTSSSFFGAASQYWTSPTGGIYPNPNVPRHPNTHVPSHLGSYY

[4] = test system: PU.1 (endogenous, THP-1 nuclear extract) + IRF8 (endogenous, THP-1 nuclear extract); assay: as above

Sequence | binding signal [1] | binding signal [2] | binding signal [3] | binding signal [4]
GGCTTTGAAATGAATTTTAG | 0.0972 z-score | -0.433 z-score | -0.529 z-score | -1.16 z-score
GTAAAATGGGAGTTTCTCAG | -0.279 z-score | -0.524 z-score | 0.105 z-score | 0.45 z-score
AGTTTTTAAACTATGCTGCA | -0.082 z-score | -0.529 z-score | -0.318 z-score | 0.264 z-score
TAAAGGACTGCCTGAAACCA | -0.0217 z-score | -0.211 z-score | -0.245 z-score | 2.62 z-score
GTTAACTTTCTAGAAACTTT | 0.0606 z-score | -0.296 z-score | -0.474 z-score | -0.0118 z-score
CCGGGGGCGGGGCTTCGCCG | -0.429 z-score | -1.15 z-score | -0.0848 z-score | -4.81 z-score
CATCCTACTTTAAGTTTCTG | -0.232 z-score | -0.0185 z-score | 0.451 z-score | 0.28 z-score
TCTGGTTTCACACCTAAATA | 0.00568 z-score | -0.371 z-score | -0.171 z-score | 6.95 z-score
TTACAATCATGGAGGGAGGC | -1.05 z-score | -0.821 z-score | 0.273 z-score | -0.728 z-score
AAAAAAACTGCATGAAAGTA | -0.32 z-score | -0.465 z-score | -0.354 z-score | 2.47 z-score
TCACTCTCCTACACTTGAGG | -0.507 z-score | -0.375 z-score | 0.173 z-score | 0.8 z-score
ACACAAAGTGGCAAGATGCT | -0.193 z-score | -0.227 z-score | -0.486 z-score | -0.287 z-score
GGGAGATTTCAGGCACTTCC | 0.717 z-score | 1.1 z-score | 3.2 z-score | -0.31 z-score
GTACCACATTCGAAATTGAA | -0.0236 z-score | -0.249 z-score | -0.801 z-score | 0.175 z-score
TTTTTTTTTTTTTTTTGAGA | -0.261 z-score | -0.427 z-score | -0.0563 z-score | -1.08 z-score
TCTACTCTCAAGGGCTTTGT | -0.621 z-score | -0.269 z-score | -0.481 z-score | -0.46 z-score
TCGAGCATCTCCATCTTTCT | -0.0607 z-score | -0.104 z-score | -0.7 z-score | -0.0744 z-score
CATTTGTCTGCGTGAAACTC | -0.459 z-score | -0.679 z-score | -0.544 z-score | 0.433 z-score
AAAGTTTCCAAAAGCTCCTG | -0.619 z-score | -0.426 z-score | -0.258 z-score | -0.239 z-score
AAATGGAATCATGCAGTACT | -0.0138 z-score | -0.254 z-score | 0.0699 z-score | -0.713 z-score
TGAGAGGCTGCGTGAAACCT | -0.683 z-score | -0.041 z-score | -0.456 z-score | 2.41 z-score
GCAATGAGCCACGTGAACCT | -0.73 z-score | -0.336 z-score | -0.607 z-score | 0.512 z-score
CGGAATACAGAAGAAAGGAC | 0.336 z-score | 0.491 z-score | 1.86 z-score | -0.78 z-score
GGAACAAACGTGATGGTCCA | -0.135 z-score | 0.189 z-score | 0.111 z-score | -0.569 z-score
GAAAGGCAGACTTGGGCTTG | -0.755 z-score | -0.294 z-score | -0.312 z-score | 0.029 z-score
GGTGGCAGCAGACAGCTGGG | -0.378 z-score | -0.158 z-score | -0.208 z-score | 0.408 z-score
ATTTTGACTGCCTGAAACTG | -0.512 z-score | -0.74 z-score | 0.0636 z-score | 2.52 z-score

Sequence | binding signal [1] | binding signal [2] | binding signal [3] | binding signal [4]
TTGGACGAGAAACTGGGTTT | 0.225 z-score | -0.206 z-score | 0.0699 z-score | 1.74 z-score
ACAACCTTGCACATCTTTTC | -0.0629 z-score | -0.443 z-score | -0.382 z-score | 1.12 z-score
TCAGCCATAATTATGACCTA | -0.152 z-score | -0.232 z-score | -0.856 z-score | -0.809 z-score
CTTAATTTAATTGAGCAGGG | -0.64 z-score | -0.505 z-score | -0.294 z-score | -0.37 z-score
AGGTGATCTGCCCACCTCAG | -0.382 z-score | -0.304 z-score | -0.56 z-score | 0.462 z-score
TCTGTTACACTTAAAACACA | 0.221 z-score | -0.341 z-score | -0.431 z-score | -1.9 z-score
CATGTGCTACTACTCTGAGC | -0.184 z-score | -0.693 z-score | -0.64 z-score | -0.596 z-score
GAGGGAACTGAAGATCTGAG | -0.208 z-score | 0.439 z-score | 0.0483 z-score | -0.274 z-score
AGAATAGAGCCCACAGGACA | -0.144 z-score | -0.207 z-score | -0.145 z-score | -0.287 z-score
TCGTTGAGGGGAATTGGGGA | 0.237 z-score | -0.0629 z-score | -0.283 z-score | 0.195 z-score
TTTAAAGCTGCATGAAACTG | -0.145 z-score | -0.376 z-score | -0.404 z-score | 2.67 z-score
CTCCAAGGTGTGCTACTAAG | -0.398 z-score | -0.177 z-score | 0.0251 z-score | 0.545 z-score
CTGTGCTAAAATCTGCCTCC | -0.105 z-score | -0.0706 z-score | -0.218 z-score | -1.35 z-score
TTAATAACATCTTCCCCAAC | 0.658 z-score | 0.664 z-score | 0.441 z-score | -0.51 z-score
TGCTTAGAAAGGACCAGATT | -0.552 z-score | -0.12 z-score | -1.08 z-score | -0.0479 z-score
AGTGCTATTAATATGATTCA | 0.117 z-score | -0.00329 z-score | -0.115 z-score | -1.38 z-score
TAGGGTTTAAACCTGATCAG | -0.788 z-score | -0.387 z-score | -1.41 z-score | 0.363 z-score
CTACTGTTTCTGCTTGTTTC | 0.0176 z-score | 0.024 z-score | -0.169 z-score | 0.596 z-score
TGCAACTGCAAACTACAGTA | -0.135 z-score | -0.418 z-score | -0.483 z-score | -1.09 z-score
GGGTGCTTATGACAGCAGGA | -0.192 z-score | -0.255 z-score | -0.903 z-score | -0.733 z-score
GTTGCCATCATCTCTATAGC | -0.212 z-score | -0.418 z-score | 0.167 z-score | -0.483 z-score
GCGCGCCGTTACCGGCCCAG | -0.815 z-score | -0.475 z-score | 0.0365 z-score | 0.782 z-score
TTGCAGAAGCCGCGAGTGAG | -0.0514 z-score | -0.012 z-score | -0.882 z-score | 0.0111 z-score
TAAATTCATTTTGATTATTA | 0.188 z-score | 0.0504 z-score | 0.307 z-score | -0.269 z-score
TTGGTGCTCATTTCCTTCCT | 0.23 z-score | 0.387 z-score | 2.81 z-score | 0.618 z-score
GAAATTACTGCGTGAAAGCA | 0.0899 z-score | -0.761 z-score | -0.415 z-score | -1.03 z-score

Reference: paper PMC6451091
